The values that follow come from publication PMC4336329 (PLoS ONE, 2015).

Structures are written as SMILES. Among all 310,000 compounds or so, about 2,200 (0.71%) showed an effect of 50% or more. The effect is printed as a negative number. The list shows a part of the results.

For this experiment, the target named is human ether-à-go-go-related gene (hERG) potassium channel (human, UniProt Q12809). The experiment can be described thus: primary screen, population patch clamp on CHO cells stably expressing hERG.
Sequence of human ether-à-go-go-related gene (hERG) potassium channel (Q12809 whole entry, looked up): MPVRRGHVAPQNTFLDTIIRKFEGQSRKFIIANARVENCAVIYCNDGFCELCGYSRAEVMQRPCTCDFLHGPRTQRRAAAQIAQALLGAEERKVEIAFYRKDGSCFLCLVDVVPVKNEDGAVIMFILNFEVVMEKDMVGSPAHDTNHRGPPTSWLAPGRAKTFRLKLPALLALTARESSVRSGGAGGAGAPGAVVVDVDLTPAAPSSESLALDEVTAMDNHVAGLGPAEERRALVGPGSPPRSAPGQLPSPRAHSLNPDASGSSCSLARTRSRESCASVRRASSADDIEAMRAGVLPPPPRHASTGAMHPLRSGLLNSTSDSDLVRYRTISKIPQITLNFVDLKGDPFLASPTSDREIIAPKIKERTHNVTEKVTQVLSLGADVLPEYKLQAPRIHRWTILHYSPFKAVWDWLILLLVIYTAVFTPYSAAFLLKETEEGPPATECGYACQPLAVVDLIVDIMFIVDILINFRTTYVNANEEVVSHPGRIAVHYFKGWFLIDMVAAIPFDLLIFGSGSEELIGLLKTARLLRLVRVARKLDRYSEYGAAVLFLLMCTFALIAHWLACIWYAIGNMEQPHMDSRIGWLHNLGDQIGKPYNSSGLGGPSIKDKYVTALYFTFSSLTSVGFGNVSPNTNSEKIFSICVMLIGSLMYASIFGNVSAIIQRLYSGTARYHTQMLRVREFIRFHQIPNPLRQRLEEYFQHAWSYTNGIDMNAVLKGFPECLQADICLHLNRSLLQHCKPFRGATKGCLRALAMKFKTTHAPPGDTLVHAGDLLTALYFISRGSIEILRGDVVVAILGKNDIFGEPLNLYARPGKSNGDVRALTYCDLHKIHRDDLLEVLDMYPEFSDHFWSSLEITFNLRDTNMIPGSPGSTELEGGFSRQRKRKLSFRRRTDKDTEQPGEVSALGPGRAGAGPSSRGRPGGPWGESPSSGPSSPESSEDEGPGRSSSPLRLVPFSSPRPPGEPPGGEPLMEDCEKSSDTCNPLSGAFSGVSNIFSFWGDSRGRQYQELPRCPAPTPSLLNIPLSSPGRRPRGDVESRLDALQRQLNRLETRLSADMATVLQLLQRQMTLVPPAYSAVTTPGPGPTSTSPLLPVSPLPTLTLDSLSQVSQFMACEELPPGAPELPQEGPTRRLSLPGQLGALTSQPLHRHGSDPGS
Consider `COc1ccc(-c2[nH]c(-c3cccc(OC)c3)nc2SCC(=O)NC2CCCC2)cc1`, for which the “hERG current change (%, negative = inhibition) at 1uM” value came out at 1.27%.
The result for `CC(C)=CC(=O)N1CC[C@@H](N2CCN(c3ccccc3F)CC2)[C@H](O)C1` reads 9.86%; that for `Clc1ccccc1-c1nnc2sc(-c3ccncc3)nn12`, 2.73%; that for `COc1ccc(Cl)cc1N(CC(=O)Nc1ccc2c(c1)OCO2)S(C)(=O)=O`, 9.67%.
The result for `O=C(Cc1cn2ccsc2n1)NCCc1ccc(F)cc1` reads 9.08%; that for `Cc1cccc(NC(=S)Nc2ccc(Oc3ccccc3)cc2)n1`, 9.12%; that for `CCCCCOc1ccc(C(=O)Nc2ccc(N3CCOCC3)cc2N2CCOCC2)cc1`, 10.1%.
As for `O=C1CCC(/C=C/c2ccccc2)=NN1Cc1ccccc1Cl`, the “hERG current change (%, negative = inhibition) at 1uM” value is recorded as 11.3%.
In the case of `CCOc1ccc(NC(=O)CN2CCN(CC(=O)Nc3ccc(F)c(F)c3)CC2)cc1`, the “hERG current change (%, negative = inhibition) at 1uM” value is listed as -87.9%.
As for `COc1cccc(-n2c(SCC(N)=O)nc3ccccc3c2=O)c1`, the “hERG current change (%, negative = inhibition) at 1uM” value is 0.43%.
For `COc1ccc(C(=O)Nc2ccc(C(=O)N3CCCCC3C)cc2)c(OC)c1OC` (centres unmarked), the “hERG current change (%, negative = inhibition) at 1uM” value was -7.93%.
The value for `CCN(CC)S(=O)(=O)c1ccc(Cl)c(C(=O)Oc2cccnc2)c1` was 3.93%; that for `CC(C)(C)n1nnnc1C(c1cccc(C#N)c1)N1CCCCCC1` (centres unmarked) was 6.61%.
As to `O=C(NC1CCN(c2ncccn2)CC1)c1ccccc1F`, the “hERG current change (%, negative = inhibition) at 1uM” value was 12.8%.
The result for `COc1ccc(CC(=O)NCc2nc(-c3ccccc3)no2)cc1` reads 7.91%; that for `Cc1ccc(-c2nn(CC(=O)O)c(=O)c3ccccc23)cc1`, 0.802%; that for `COc1ccc(CCNC(=O)CSc2n[nH]c(N)n2)cc1`, 7.56%.
For the compound `Cc1[nH]c(=O)[nH]c(=O)c1CSCC(=O)OCC(=O)Nc1ccccn1`, the “hERG current change (%, negative = inhibition) at 1uM” value is given as 9.37%.
The result for `COc1cccc(OCc2cc(C(=O)N3CCN(c4ccccc4OC)CC3)no2)c1` reads 15.7%.
The result for `C/C=C\C=C/C(=O)Nc1cccc(C2=NOC3(C2)C[C@@H](C(N)=O)N(C(=O)COc2ccc(Cl)cc2)C3)c1` (some centres unmarked) reads 5.84%.
Consider `Cc1ccccc1Nc1nc(N)nc(COC(=O)CCS(=O)(=O)c2ccccc2)n1`, for which the “hERG current change (%, negative = inhibition) at 1uM” value is reported as -0.672%.
For `CC(=O)NC(C)c1cc(Cl)c2ccccc2c1O` (centres unmarked), the “hERG current change (%, negative = inhibition) at 1uM” value is reported as 6.65%.
For `N#Cc1ccccc1S(=O)(=O)N1CCN(CC(=O)Nc2ccccc2C(=O)NC2CC2)CC1`, the “hERG current change (%, negative = inhibition) at 1uM” value is recorded as -25.4%.
For `COC(C(=O)NC(C(C)C)C(C)C)c1ccccc1` (centres unmarked), the “hERG current change (%, negative = inhibition) at 1uM” value is -2.55%.
The result for `COC(=O)C1=C(C)N(Cc2ccccc2)C(=NCC(C)C)N[C@H]1c1ccccc1` reads -5.41%.
The value for `Cc1ccc(C)c(NC(=O)CNS(=O)(=O)c2ccccc2)c1` was 9.25%; that for `CC1SC(=S)N(c2ccc(N(C)C)cc2)C1=O` (centres unmarked) was 15.5%.
The result for `CC1=C([N+](=O)[O-])C(c2cccc(Br)c2)C2=C(N1)c1ccccc1C2=O` (centres unmarked) reads 9.32%; that for `Cc1cccc2c1CC(C)(C)N=C2C1=C(O)CC(C)(C)CC1=O`, 2.54%; that for `COC(=O)c1c(N)sc(C(C)=O)c1C`, 3.12%.
As to `Cc1cc(NC(=O)CSCC(=O)NCc2cccc(C(F)(F)F)c2)no1`, the “hERG current change (%, negative = inhibition) at 1uM” value is 4.81%.
The value for `Fc1cccc(CCN2CCNC[C@@H]2c2ccccc2)c1` was 8.3%; that for `CCOC(=O)C1C(=O)C=C(C)C(C(=O)OCC)C1c1cccc([N+](=O)[O-])c1` (centres unmarked) was 6.14%; that for `O=C(N/N=C/c1cn(-c2ccccc2)nc1-c1cccnc1)c1ccccc1` was -13.1%.
The value for `Cn1nc(C(=O)Nc2cc(Cl)ccc2N2CCCC2)c2ccccc2c1=O` was 6.96%; that for `CN(C)CCNc1oc(COc2ccc(Cl)cc2Cl)nc1C#N` was 15.9%; that for `O=C(Nc1nc2ccccc2[nH]1)C1CC1` was 8.25%.
Consider `O=C(CCC(=O)N(c1cccc(F)c1)C(C(=O)NC1CCCC1)c1ccncc1)Nc1cccnc1` (centres unmarked), for which the “hERG current change (%, negative = inhibition) at 1uM” value is on record as 15.1%.
The value for `COc1ccc(C(C)(C)C)cc1NC(=O)c1cncc(Br)c1` was 7.8%; that for `O=C(NC1CCCCC1)c1cccnc1Sc1ccccc1Cl` was 11.4%.
Turning to `COCCNC(=O)CS(=O)Cc1nc(-c2ccc(OC)cc2)oc1C` (centres unmarked), the “hERG current change (%, negative = inhibition) at 1uM” value came to 16.2%.
The result for `S=C1NCCOCCOCCOCCOCCNC(=S)N2CCOCCOCCN1CCOCC2` reads 3.89%; that for `CCc1noc(C)c1C(=O)Nc1nc(-c2ccc(NC(C)=O)cc2)cs1`, 15.3%.
The value for `COc1ccccc1NC(=S)NN1CCN(C)CC1` was -3.62%.
